This note sets out measurements from the supplement of paper PMC8728848.

This is one part of the list.

What all share (assay): glycan array binding signal (z-score within array); higher = stronger binding
Common to all, as to details: glycan notation: IUPAC condensed, linker removed

The target in experiment [1] is Gal(b1-4)GlcNAc(b1-2)Man(a1-6)[Man(a1-3)]Man(b1-4)GlcNAc(b1-4)GlcNAc. In a few lines: (§1)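 Columns mapping to the same glycan were averaged after glycan names were converted to IUPAC-condensed notation. The data come from 3228 arrays in the Consortium for Functional Glycomics database, limited to those with an available protein sequence. Binding is reported as a within-array Z-score averaged across arrays of one protein sequence and across linkers.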

The target of experiment [2] is Gal(b1-4)GlcNAc(b1-2)[Gal(b1-4)GlcNAc(b1-4)]Man(a1-3)[Gal(b1-4)GlcNAc(b1-2)Man(a1-6)]Man(b1-4)GlcNAc(b1-4)GlcNAc. A digest of the protocol: as §1
Experiment [3] has as its target Gal(b1-4)GlcNAc(b1-2)[Gal(b1-4)GlcNAc(b1-4)]Man(a1-3)[Gal(b1-4)GlcNAc(b1-2)[Gal(b1-4)GlcNAc(b1-6)]Man(a1-6)]Man(b1-4)GlcNAc(b1-4)GlcNAc. In a few lines:
as §1

Experiment [4] addresses Gal(b1-4)GlcNAc(b1-2)[Gal(b1-4)GlcNAc(b1-4)]Man(a1-3)[GlcNAc(b1-4)][Gal(b1-4)GlcNAc(b1-2)Man(a1-6)]Man(b1-4)GlcNAc(b1-4)GlcNAc. In a few lines:
as §1

The target in experiment [5] is Gal(b1-4)GlcNAc(b1-2)[Gal(b1-4)GlcNAc(b1-4)]Man(a1-3)[GlcNAc(b1-4)][Gal(b1-4)GlcNAc(b1-2)[Gal(b1-4)GlcNAc(b1-6)]Man(a1-6)]Man(b1-4)GlcNAc(b1-4)GlcNAc. In a few lines:
as §1

Experiment [6] has as its target Gal(b1-4)GlcNAc(b1-2)[Gal(b1-4)GlcNAc(b1-6)]Man(a1-6)[Gal(b1-4)GlcNAc(b1-2)Man(a1-3)]Man(b1-4)GlcNAc(b1-4)GlcNAc. A digest of the protocol:
as §1

For experiment [7], the target named is Gal(b1-4)GlcNAc(b1-2)[Gal(b1-4)GlcNAc(b1-6)]Man(a1-6)[Gal(b1-4)GlcNAc(b1-2)Man(a1-3)]Man(b1-4)GlcNAc(b1-4)[Fuc(a1-6)]GlcNAc. In a few lines:
as §1

Experiment [8] addresses Gal(b1-4)GlcNAc(b1-2)[Gal(b1-4)GlcNAc(b1-6)]Man(a1-6)[GlcNAc(b1-4)][Gal(b1-4)GlcNAc(b1-2)Man(a1-3)]Man(b1-4)GlcNAc(b1-4)GlcNAc. A digest of the protocol: as §1
Experiment [9] has as its target Gal(b1-4)GlcNAc(b1-2)[Gal(b1-4)GlcNAc(b1-6)]Man(a1-6)[GlcNAc(b1-4)][Gal(b1-4)GlcNAc(b1-2)[Gal(b1-4)GlcNAc(b1-4)]Man(a1-3)]Man(b1-4)GlcNAc(b1-4)[Fuc(a1-6)]GlcNAc. In a few lines:
as §1

Experiment [10] addresses Gal(b1-4)GlcNAc(b1-3)Gal(b1-3)GalNAc. In a few lines: as §1
Experiment [11] has as its target Gal(b1-4)GlcNAc(b1-3)Gal(b1-3)GlcNAc. In a few lines:
as §1

The target of experiment [12] is Gal(b1-4)GlcNAc(b1-3)Gal(b1-4)Glc. A digest of the protocol:
as §1

Experiment [13] addresses Gal(b1-4)GlcNAc(b1-3)Gal(b1-4)GlcNAc. In a few lines:
as §1

Experiment [14] deals with Gal(b1-4)GlcNAc(b1-3)Gal(b1-4)GlcNAc(b1-2)Man(a1-3)[Gal(b1-4)GlcNAc(b1-3)Gal(b1-4)GlcNAc(b1-2)Man(a1-6)]Man(b1-4)GlcNAc(b1-4)GlcNAc. In a few lines: as §1
Experiment [15] has as its target Gal(b1-4)GlcNAc(b1-3)Gal(b1-4)GlcNAc(b1-2)Man(a1-3)[Gal(b1-4)GlcNAc(b1-3)Gal(b1-4)GlcNAc(b1-2)Man(a1-6)]Man(b1-4)GlcNAc(b1-4)[Fuc(a1-6)]GlcNAc. A digest of the protocol:
as §1

Experiment [16] concerns the target Gal(b1-4)GlcNAc(b1-3)Gal(b1-4)GlcNAc(b1-2)[Gal(b1-4)GlcNAc(b1-3)Gal(b1-4)GlcNAc(b1-6)]Man(a1-6)[Gal(b1-4)GlcNAc(b1-3)Gal(b1-4)GlcNAc(b1-2)Man(a1-3)]Man(b1-4)GlcNAc(b1-4)GlcNAc. In a few lines: as §1
Experiment [17] has as its target Gal(b1-4)GlcNAc(b1-3)Gal(b1-4)GlcNAc(b1-2)[Gal(b1-4)GlcNAc(b1-3)Gal(b1-4)GlcNAc(b1-6)]Man(a1-6)[Gal(b1-4)GlcNAc(b1-3)Gal(b1-4)GlcNAc(b1-2)Man(a1-3)]Man(b1-4)GlcNAc(b1-4)[Fuc(a1-6)]GlcNAc. In a few lines: as §1
In experiment [18] the target is Gal(b1-4)GlcNAc(b1-3)Gal(b1-4)GlcNAc(b1-3)Gal(b1-4)GlcNAc. In a few lines: as §1
Experiment [19] concerns the target Gal(b1-4)GlcNAc(b1-3)Gal(b1-4)GlcNAc(b1-3)Gal(b1-4)GlcNAc(b1-2)Man(a1-3)[Gal(b1-4)GlcNAc(b1-3)Gal(b1-4)GlcNAc(b1-3)Gal(b1-4)GlcNAc(b1-2)Man(a1-6)]Man(b1-4)GlcNAc(b1-4)GlcNAc. In a few lines:
as §1

The target in experiment [20] is Gal(b1-4)GlcNAc(b1-3)Gal(b1-4)GlcNAc(b1-3)Gal(b1-4)GlcNAc(b1-2)Man(a1-3)[Gal(b1-4)GlcNAc(b1-3)Gal(b1-4)GlcNAc(b1-3)Gal(b1-4)GlcNAc(b1-2)Man(a1-6)]Man(b1-4)GlcNAc(b1-4)[Fuc(a1-6)]GlcNAc. In a few lines: as §1
Experiment [21] deals with Gal(b1-4)GlcNAc(b1-3)Gal(b1-4)GlcNAc(b1-3)Gal(b1-4)GlcNAc(b1-2)[Gal(b1-4)GlcNAc(b1-3)Gal(b1-4)GlcNAc(b1-3)Gal(b1-4)GlcNAc(b1-6)]Man(a1-6)[Gal(b1-4)GlcNAc(b1-3)Gal(b1-4)GlcNAc(b1-3)Gal(b1-4)GlcNAc(b1-2)Man(a1-3)]Man(b1-4)GlcNAc(b1-4)[Fuc(a1-6)]GlcNAc. In a few lines:
as §1

Experiment [22] deals with Gal(b1-4)GlcNAc(b1-3)Gal(b1-4)GlcNAc(b1-3)Gal(b1-4)GlcNAc(b1-3)Gal(b1-4)GlcNAc(b1-2)Man(a1-3)[Gal(b1-4)GlcNAc(b1-3)Gal(b1-4)GlcNAc(b1-3)Gal(b1-4)GlcNAc(b1-3)Gal(b1-4)GlcNAc(b1-2)Man(a1-6)]Man(b1-4)GlcNAc(b1-4)GlcNAc. In a few lines:
as §1

B1: PfulAvr4 (Pseudocercospora fuligena) (protein)
chain: HHHHHHDYKDDDDKTYVQDKTPAFVCPAADIKTTKCLGPKDCLYPSPKTCNGYIQCSPADDSYLTGIIHEMPCPSGLLWNDNKKWCDWPENTTCGLVKSAGATEVDATKQGPTPGKYHG
As for B1, the “glycan array binding signal (z-score)” value is 0.023 in experiment [1]; -0.046 in [2]; -0.126 in [3]; 0.013 in experiment [4]; 0.082 in experiment [5]; 0.026 in experiment [6]. Further, the “glycan array binding signal (z-score)” value in [7] is -0.131; in experiment [8], 0.008; in experiment [9], -0.015; in experiment [10] it was -0.122; in experiment [11], -0.04; in [12], -0.097. Moreover, the “glycan array binding signal (z-score)” value in experiment [13] is -0.014; in experiment [14] it was 0.677; in experiment [15], -0.008; in [16], 1.38; in experiment [17], -0.13; in experiment [18] it was -0.156. Further, the “glycan array binding signal (z-score)” value in experiment [19] was -0.027; in experiment [20], -0.02; in experiment [21], -0.101; in experiment [22] it was -0.024.
